# Measurements as given in a collection of fitness landscapes (doi:10.1038/s41467-024-54723-y).
# Whole data set: some 18,000 sequences, median “TetR repression strength (sort-seq, GFP reporter)” near 0.23, cut for the highest 2% near 0.68. The list shows a part of the results.
# Biological target: TetR (class B, Tn10) (UniProt P04483)
# Assay: TetR repression strength (sort-seq, GFP reporter) (relative to tetO2 = 1); higher = stronger repression
# Details: E. coli
# In short: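 Three independent transformations of E. coli SIG10-MAX were made with a low-copy plasmid library randomizing eight operator positions between a constitutive promoter and sfGFP, with constitutive TetR. Following 5 h at 37 °C in LB plus 50 µg/mL chloramphenicol, 10^6 cells went through FACS into 13 fluorescence bins, and each bin was sequenced by Illumina. Repression strength was defined as the top bin index plus one minus the read-weighted mean bin, divided by the unaltered operator's value. Averages included only members reaching ≥30 reads in all replicates with a CV ≤0.5.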
# Sequence of UniProt P04483 (P04483 whole entry): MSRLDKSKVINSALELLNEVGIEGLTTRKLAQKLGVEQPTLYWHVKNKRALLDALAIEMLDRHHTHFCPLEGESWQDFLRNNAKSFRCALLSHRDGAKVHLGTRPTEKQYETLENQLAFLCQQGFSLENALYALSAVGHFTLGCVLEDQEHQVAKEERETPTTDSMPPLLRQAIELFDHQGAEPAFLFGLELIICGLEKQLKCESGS
row,Sequence,TetR repression strength
1,TCCCCCACAGTGGATGAGA,0.294
2,TCCCGCGGAGTTAGTGAGA,0.16
3,TCCCTCGGAGTGACGGAGA,0.111
4,TCCCATACAGTGCCGGAGA,0.311
5,TCCCCTAAAGTCCTTGAGA,0.469
6,TCCCCAAAAGTAAACGAGA,0.578
7,TCCCATTTAGTTTCCGAGA,0.506
8,TCCCTGGGAGTGTTCGAGA,0.206
9,TCCCGGCAAGTCAGGGAGA,0.32
10,TCCCAGAAAGTGGGTGAGA,0.172
11,TCCCAGCAAGTGACAGAGA,0.223
12,TCCCCTTTAGTCTGTGAGA,0.247
13,TCCCACTCAGTCGTGGAGA,0.254
14,TCCCGGCCAGTTGTTGAGA,0.199
15,TCCCAGTAAGTGTACGAGA,0.405
16,TCCCGCACAGTCAACGAGA,0.236
17,TCCCACATAGTGGTAGAGA,0.199
18,TCCCTGATAGTTACCGAGA,0.104
19,TCCCAATCAGTTCGAGAGA,0.198
20,TCCCGAACAGTACTGGAGA,0.317
21,TCCCACTCAGTGGTGGAGA,0.236
22,TCCCATTTAGTGTTGGAGA,0.312
23,TCCCTCCTAGTGCGGGAGA,0.115
24,TCCCCAAGAGTGTGTGAGA,0.249
25,TCCCAACAAGTGTCAGAGA,0.341
26,TCCCTATGAGTGGTCGAGA,0.321

row,Sequence,TetR repression strength
1,TCCCATTTAGTGACAGAGA,0.461
2,TCCCTGGTAGTCTCAGAGA,0.0898
3,TCCCGTCGAGTGGCGGAGA,0.193
4,TCCCAGCAAGTTGCGGAGA,0.201
5,TCCCATCTAGTGCGTGAGA,0.708
6,TCCCTAATAGTGCGGGAGA,0.209
7,TCCCGTTCAGTCTATGAGA,0.172
8,TCCCAAGGAGTTGAAGAGA,0.259
9,TCCCTAGTAGTGCAAGAGA,0.538
10,TCCCGTCCAGTCACTGAGA,0.215
11,TCCCGGACAGTGGTGGAGA,0.188
12,TCCCTGTAAGTACTGGAGA,0.126
13,TCCCGAGGAGTTAGCGAGA,0.463
14,TCCCTACGAGTGCTGGAGA,0.388
15,TCCCGTAAAGTTGGCGAGA,0.317
16,TCCCGGTGAGTCGAGGAGA,0.272
17,TCCCAACGAGTTCGGGAGA,0.277
18,TCCCTAACAGTGCCTGAGA,0.128
19,TCCCTGGTAGTAATAGAGA,0.259
20,TCCCCCAGAGTTGTGGAGA,0.224
21,TCCCAATAAGTCAGAGAGA,0.11
22,TCCCAGCGAGTTGTGGAGA,0.174
23,TCCCGGTGAGTACAGGAGA,0.261
24,TCCCGGGGAGTACACGAGA,0.107
25,TCCCGGAGAGTCGGGGAGA,0.287
26,TCCCAGGGAGTGCCTGAGA,0.22

row,Sequence,TetR repression strength
1,TCCCTTCAAGTGTTAGAGA,0.433
2,TCCCTACTAGTGTTTGAGA,0.289
3,TCCCCACTAGTCGGCGAGA,0.289
4,TCCCCTAAAGTTGTGGAGA,0.0567
5,TCCCAGGAAGTGATTGAGA,0.266
6,TCCCTAGCAGTTGGAGAGA,0.471
7,TCCCGCTAAGTGCTAGAGA,0.36
8,TCCCACACAGTGTAGGAGA,0.274
9,TCCCGGTTAGTCGGAGAGA,0.181
10,TCCCGTGGAGTGTATGAGA,0.16
11,TCCCCTCTAGTAGCAGAGA,0.259
12,TCCCTTTGAGTACGTGAGA,0.0564
13,TCCCTGCGAGTTGAGGAGA,0.254
14,TCCCTTATAGTTGTCGAGA,0.0735
15,TCCCAACGAGTATGCGAGA,0.421
16,TCCCAATGAGTGCTGGAGA,0.352
17,TCCCAGGGAGTGTGGGAGA,0.244
18,TCCCATTGAGTGTTTGAGA,0.534
19,TCCCGCGGAGTGTTGGAGA,0.281
20,TCCCTTGGAGTTCGAGAGA,0.389
21,TCCCGAAAAGTTAGGGAGA,0.145
22,TCCCTTGCAGTATGAGAGA,0.157
23,TCCCTAGTAGTAGTTGAGA,0.434
24,TCCCATAGAGTAGGTGAGA,0.0226
25,TCCCTGCAAGTGCCTGAGA,0.195
26,TCCCAAGAAGTTAGAGAGA,0.3

row,Sequence,TetR repression strength
1,TCCCTGTTAGTTGGAGAGA,0.118
2,TCCCGTGGAGTTTGCGAGA,0.202
3,TCCCGGGTAGTAATGGAGA,0.247
4,TCCCTTCGAGTGTGCGAGA,0.209
5,TCCCGATAAGTGCTGGAGA,0.332
6,TCCCTGGTAGTGCCAGAGA,0.474
7,TCCCGGGAAGTACGTGAGA,0.102
8,TCCCAAGTAGTTTAAGAGA,0.375
9,TCCCGATAAGTGGTAGAGA,0.344
10,TCCCTAGTAGTCGCGGAGA,0.388
11,TCCCCGGGAGTACAGGAGA,0.353
12,TCCCGGCCAGTTGGGGAGA,0.254
13,TCCCGAGCAGTTTGTGAGA,0.104
14,TCCCAGTTAGTTGGGGAGA,0.303
15,TCCCACATAGTCACAGAGA,0.496
16,TCCCTGGAAGTTACGGAGA,0.316
17,TCCCGGCAAGTGCTTGAGA,0.155
18,TCCCGCGGAGTTTAGGAGA,0.232
19,TCCCGATAAGTGTGCGAGA,0.247
20,TCCCTCGGAGTGTCGGAGA,0.127
21,TCCCGCATAGTATAGGAGA,0.0705
22,TCCCAGCAAGTCTTAGAGA,0.17
23,TCCCTTGGAGTTGTGGAGA,0.245
24,TCCCTGGTAGTGAGGGAGA,0.148
25,TCCCTAAAAGTTGTCGAGA,0.289
26,TCCCAAAGAGTGGAGGAGA,0.388

row,Sequence,TetR repression strength
1,TCCCATTTAGTGGGAGAGA,0.207
2,TCCCTCGTAGTCGAAGAGA,0.629
3,TCCCAGATAGTACGGGAGA,0.0773
4,TCCCACAAAGTGCAGGAGA,0.125
5,TCCCGGTTAGTGATTGAGA,0.508
6,TCCCTCACAGTAACCGAGA,0.376
7,TCCCTAGGAGTAGGAGAGA,0.268
8,TCCCACCGAGTCAGGGAGA,0.346
9,TCCCGAGGAGTTATAGAGA,0.326
10,TCCCAGCGAGTCTACGAGA,0.207
11,TCCCGACTAGTCTGCGAGA,0.232
12,TCCCGTCCAGTGGACGAGA,0.16
13,TCCCATGCAGTTTAGGAGA,0.0346
14,TCCCATGGAGTAGTGGAGA,0.264
15,TCCCAGCAAGTGTGGGAGA,0.0792
16,TCCCGAGCAGTACTGGAGA,0.248
17,TCCCTGCTAGTGGTCGAGA,0.271
18,TCCCGACGAGTGGCTGAGA,0.387
19,TCCCTTCGAGTTACTGAGA,0.464
20,TCCCAGATAGTGTGGGAGA,0.43
21,TCCCGTCAAGTACGTGAGA,0.182
22,TCCCTGTCAGTGACAGAGA,0.636
23,TCCCCCTGAGTGGGAGAGA,0.0912
24,TCCCCAAGAGTAGGAGAGA,0.149
25,TCCCTGCCAGTCCGGGAGA,0.166
26,TCCCAGAGAGTGACTGAGA,0.12

row,Sequence,TetR repression strength
1,TCCCCCTTAGTAGTTGAGA,0.0838
2,TCCCGCAGAGTAGCTGAGA,0.265
3,TCCCCTAGAGTTTGGGAGA,0.36
4,TCCCGGCGAGTTGGAGAGA,0.242
5,TCCCCAATAGTAGTCGAGA,0.459
6,TCCCGAATAGTGTGTGAGA,0.4
7,TCCCTAGAAGTGGATGAGA,0.203
8,TCCCCCTTAGTCGCTGAGA,0.253
9,TCCCTTTGAGTATCGGAGA,0.283
10,TCCCGACGAGTGAGTGAGA,0.599
11,TCCCGGGAAGTTGCGGAGA,0.254
12,TCCCTGCAAGTGGCAGAGA,0.0298
13,TCCCCAATAGTGCGTGAGA,0.118
14,TCCCGTGAAGTACTGGAGA,0.311
15,TCCCCGTCAGTAAAGGAGA,0.402
16,TCCCATGTAGTATAAGAGA,0.203
17,TCCCGACCAGTATCGGAGA,0.0957
18,TCCCTCGTAGTAAAGGAGA,0.13
19,TCCCTAGCAGTCCGTGAGA,0.132
20,TCCCGGGCAGTGGGTGAGA,0.275
21,TCCCTTGAAGTCATTGAGA,1.05
22,TCCCGTGAAGTAGGCGAGA,0.0942
23,TCCCTCTGAGTGGAGGAGA,0.186
24,TCCCGTTGAGTCAGTGAGA,0.493
25,TCCCATGTAGTGTATGAGA,0.112
26,TCCCTGATAGTCTTCGAGA,0.299

row,Sequence,TetR repression strength
1,TCCCGTGAAGTCGCTGAGA,0.168
2,TCCCAGTGAGTATGCGAGA,0.263
3,TCCCCTTAAGTCTCCGAGA,0.236
4,TCCCGTAAAGTTCGAGAGA,0.207
5,TCCCGCTGAGTATAGGAGA,0.0823
6,TCCCGGAGAGTGCTAGAGA,0.162
7,TCCCCCGGAGTACGTGAGA,0.187
8,TCCCAATTAGTGTGGGAGA,0.0215
9,TCCCAAGTAGTAGGGGAGA,0.322
10,TCCCAAAGAGTAAACGAGA,0.184
11,TCCCGCGGAGTCCGAGAGA,0.202
12,TCCCTTTAAGTGAGCGAGA,0.0365
13,TCCCTTCAAGTTGAGGAGA,0.0988
14,TCCCCGTAAGTCGGCGAGA,0.134
15,TCCCTAGCAGTTAGTGAGA,0.301
16,TCCCCAGGAGTGTTAGAGA,0.285
17,TCCCCCCGAGTTCCGGAGA,0.295
18,TCCCAGAGAGTAACAGAGA,0.251
19,TCCCCAACAGTAGCGGAGA,0.445
20,TCCCAGGCAGTCGTTGAGA,0.196
21,TCCCGCTTAGTCCGTGAGA,0.183
22,TCCCGTCAAGTGGCCGAGA,0.152
23,TCCCGATGAGTGGCGGAGA,0.117
24,TCCCTCTGAGTATTAGAGA,0.502
25,TCCCCTATAGTCCAGGAGA,0.28
26,TCCCAGCAAGTAACTGAGA,0.213

row,Sequence,TetR repression strength
1,TCCCAAGAAGTCAAGGAGA,0.393
2,TCCCAGAGAGTGGGTGAGA,0.182
3,TCCCCTACAGTGCGTGAGA,0.373
4,TCCCGTGCAGTTCGTGAGA,0.287
5,TCCCGGTTAGTTAGCGAGA,0.363
6,TCCCAAACAGTAGTGGAGA,0.158
7,TCCCGAGTAGTGTTGGAGA,0.254
8,TCCCGTGGAGTCGCAGAGA,0.164
9,TCCCCTCCAGTCTTGGAGA,0.321
10,TCCCTGGTAGTACGAGAGA,0.219
11,TCCCTATGAGTGTGTGAGA,0.207
12,TCCCCTTGAGTGTCTGAGA,0.25
13,TCCCATAGAGTTGTCGAGA,0.2
14,TCCCCCTCAGTGGATGAGA,0.124
15,TCCCTGGGAGTTATAGAGA,0.354
16,TCCCGTCAAGTATATGAGA,0.301
17,TCCCAAGGAGTATGGGAGA,0.138
18,TCCCAGTGAGTGGATGAGA,0.151
19,TCCCTGGGAGTAGAGGAGA,0.303
20,TCCCATTGAGTTCCGGAGA,0.115
21,TCCCCCTGAGTGAGCGAGA,0.228
22,TCCCCGGGAGTATCAGAGA,0.332
